Source: patent US20220389066A1, “POLYPEPTIDES” (Affibody AB, priority 2019, published 2022)

Legend:
HMGB1(disulfide) = target: T1, HMGB1(disulfide) (Rattus norvegicus, UniProt P63159); assay: SPR binding specificity study, HMGB1(disulfide); conditions: analyte HMGB1 (disulfide); captured on HSA
T1 construct: purchased HMGBiotech Srl, Milano, Italy
T1 sequence (P63159 1-215): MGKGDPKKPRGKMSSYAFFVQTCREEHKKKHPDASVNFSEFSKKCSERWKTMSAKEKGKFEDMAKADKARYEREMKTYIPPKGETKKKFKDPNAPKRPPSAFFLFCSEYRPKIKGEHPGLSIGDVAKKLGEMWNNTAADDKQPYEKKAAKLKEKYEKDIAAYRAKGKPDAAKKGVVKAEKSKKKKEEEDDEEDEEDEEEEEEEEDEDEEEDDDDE
Description: (§1) HSA (Albucult®, Novozyme) was diluted to 10 μg/ml in acetate, pH 4.0, and immobilized onto a CM5 sensor chip using a Biacore 2000 instrument. Immobilization was performed by amine chemistry, using amine coupling kit, according to the manufacturer's instructions. The first surface of each chip was activated and deactivated for use as a reference cell (blank surface) during analyte injections. HBS-EP was used as running buffer, supplemented with 1.5 mM DTT when analyzing the binding to HMGB1(red). ZZA4263 was injected at a concentration of 100 nM for 4 minutes over the HSA and the reference sensor chip surfaces at a constant flow rate of 30 μl/min. This was followed by 4 minutes' injection of 0, 8.3, 25, 75, 225 and 675 nM of HMGB1(red), HMGB1(disulfide), HMGB2 (Biorbyt, cat. no. orb180287), HMGB3 (Biorbyt, cat. no. orb180288), SP100 (Biorbyt, cat. no. orb169341), TNF (R&D Systems, cat. no. 210-TA), IL-6 (R&D Systems, cat. no. 206-IL) and IL-1β (R&D Systems, cat. no. 201-LB/CF), respectively. The proteins were allowed to dissociate for 20 minutes before the chip surfaces were regenerated by two 10 second pulses using 10 mM HCl. The reference surface and the buffer sample were subtracted from all curves. The buffer sample was subtracted to adjust for the dissociation of ZZA4263 from HSA. […]

IL-1β = target: T2, IL-1β (Homo sapiens, UniProt P01584); assay: SPR binding specificity study, IL-1β; conditions: up to 675 nM analyte
T2 construct: purchased R&D Systems 201-LB/CF
Description: as §1

HMGB1(red) = target: T3, HMGB1(red) (Rattus norvegicus, UniProt P63159); assay: SPR binding specificity study, HMGB1(red); conditions: analyte HMGB1(red); 1.5 mM DTT; captured on HSA
T3 construct: purchased HMGBiotech Srl, Milano, Italy
T3 sequence (P63159 1-215): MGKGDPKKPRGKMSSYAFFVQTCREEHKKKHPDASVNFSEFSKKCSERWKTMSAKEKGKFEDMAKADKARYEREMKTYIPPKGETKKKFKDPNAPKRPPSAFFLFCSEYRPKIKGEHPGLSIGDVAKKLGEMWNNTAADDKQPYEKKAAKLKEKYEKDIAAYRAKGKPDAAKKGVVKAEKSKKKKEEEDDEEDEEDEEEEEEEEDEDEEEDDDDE
Description: as §1

HMGB2 = target: T4, HMGB2 (Homo sapiens, UniProt P26583); assay: SPR binding specificity study, HMGB2; conditions: analyte HMGB2; captured on HSA
T4 construct: purchased Biorbyt orb180287
T4 sequence (P26583 1-209): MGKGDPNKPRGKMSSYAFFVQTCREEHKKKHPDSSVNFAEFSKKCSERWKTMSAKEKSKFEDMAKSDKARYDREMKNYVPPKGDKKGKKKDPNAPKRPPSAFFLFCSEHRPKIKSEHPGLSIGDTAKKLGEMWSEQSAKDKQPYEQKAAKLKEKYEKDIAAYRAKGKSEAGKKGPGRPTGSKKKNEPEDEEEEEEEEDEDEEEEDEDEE
Description: as §1

IL-6 = target: T5, IL-6 (Homo sapiens, UniProt P05231); assay: SPR binding specificity study, IL-6; conditions: up to 675 nM analyte
T5 construct: purchased R&D Systems 206-IL
Description: as §1

[1] = target: T6, HMGB1-CXCL12 complex binding to CXCR4 (Rattus norvegicus, UniProt P63159); assay: cAMP Hunter eXpress CXCR4 CHO-K1 GPCR Assay; assay type: cell-based; conditions: ZZA4263 1000 nM-0.0006 nM; HMGB1 10 nM; CXCL12 0.4 nM; 30 min
T6 construct: purchased HMGBiotech HM001; host or cells: cAMP CHO-K1 CXCR4 eXpress cells (DiscoverX 95-0081E2)
T6 sequence (P63159 2-215): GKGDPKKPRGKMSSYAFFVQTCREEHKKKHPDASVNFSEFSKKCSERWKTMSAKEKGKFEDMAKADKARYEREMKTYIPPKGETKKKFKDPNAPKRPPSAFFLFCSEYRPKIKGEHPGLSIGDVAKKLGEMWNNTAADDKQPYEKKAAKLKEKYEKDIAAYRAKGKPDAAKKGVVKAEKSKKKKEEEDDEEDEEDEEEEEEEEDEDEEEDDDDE
Description: cAMP Hunter eXpress CXCR4 CHO-K1 GPCR Assay kit with reagents was obtained from DiscoverX (cat no 95-0081E2CP2L). cAMP CHO-K1 CXCR4 eXpress cells (DiscoverX, cat no: 95-0081E2) were thawed and seeded into a white 96-well plate, with clear bottom, in 100 μl AssayComplete Cell Plate 2 Reagent. The cells were cultured overnight at 37° C., 5% CO2.
On the day of the experiment, dilution of HMGB1 (HMGBiotech, cat no: HM001), CXCL12 (DiscoverX, cat no: 92-1011) and ZZA4263 (SEQ ID NO: 48) was performed in a separate dilution plate. First, a serial dilution of HMGB1 (200 nM-0.3 nM) in Cell Assay Buffer with forskolin and tris(2-carboxyethyl)phosphine hydrochloride (TCEP; Sigma-Aldrich) was performed and incubated with CXCL12 at RT for 15 min. Second, a serial dilution of ZZA4263 (1000 nM-0.0006 nM) in PBS was performed and incubated with HMGB1 (10 nM) and CXCL12 (0.4 nM) in Cell Assay Buffer with forskolin and TCEP at RT for 15 min. Cell medium was removed from cells and 30 μl Cell Assay Buffer was added together with 15 μl HMGB1, CXCL12 and ZZA4263 dilutions. Cells were incubated at 37° C., 5% CO2 for 30 min. cAMP standard was serially diluted and added to the plate after the incubation. All Cell Assay Buffer was removed from the cells and 45 μl of fresh Cell Assay Buffer was added to each well. […] The luminescence was measured in a 96-well plate reader (Enspire).

T2 sequence (P01584 117-269): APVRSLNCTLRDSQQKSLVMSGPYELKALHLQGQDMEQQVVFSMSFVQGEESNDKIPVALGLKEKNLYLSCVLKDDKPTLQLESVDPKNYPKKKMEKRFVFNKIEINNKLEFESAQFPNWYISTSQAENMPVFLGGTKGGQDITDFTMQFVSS
T5 sequence (P05231 30-212): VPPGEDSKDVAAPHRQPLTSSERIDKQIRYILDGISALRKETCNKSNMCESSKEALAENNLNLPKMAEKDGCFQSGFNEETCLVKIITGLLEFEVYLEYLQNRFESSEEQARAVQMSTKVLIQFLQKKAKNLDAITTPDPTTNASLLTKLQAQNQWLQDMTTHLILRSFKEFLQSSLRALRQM

B1: ZZA4263: heterodimer ZH27/ZH32, format Z(boxB)-L2-Z(boxA)-ABD (protein)
chain: AEAKYAKEAWLAEQEIWQLPNLTEAQFQAFILKLIDDPSQSSELLSEAKKLNDSQAPKGAPGGGGSTSAEAKYAKEDWDAFWEIIWLPNLTDAQQRAFIYKLEDDPSQSSELLSEAKKLNDSQAPKASGSLAEAKEAANAELDSYGVSDFYKRLIDKAKTVEGVEALKDAILAALP
modifications: Engineered HMGB1 binding polypeptide
notes: heterodimer ZH27/ZH32, format Z(boxB)-L2-Z(boxA)-ABD
ka (HMGB1(disulfide)): 49000 M⁻¹ s⁻¹
kd (HMGB1(disulfide)): 0.00054 s⁻¹
binding to IL-1β (IL-1β): No significant binding
ka (HMGB1(red)): 1.3e+06 M⁻¹ s⁻¹
kd (HMGB1(red)): 0.00015 s⁻¹
ka (HMGB2): 180000 M⁻¹ s⁻¹
kd (HMGB2): 0.00036 s⁻¹
binding to IL-6 (IL-6): No significant binding
inhibition of binding of the HMGB1-CXCL12 complex to CXCR4 (return of luminescent signal) [1]: inhibit the binding of the HMGB1-CXCL12 complex to CXCR4 in a dose dependent manner
